# Measured values taken from the supplement of paper PMC7125110.
# ± gives the standard error. For some assays here: Variants at the background level are over-represented here.
# B1: glmS ribozyme (parent)
# chain: AUAAAAGCGCCAGAACUACAGAAAUGUAGUUGACGAGGAGGAGGUUUAUCGAAUUUUCGGCGGAUGCCUCCAAA
# Columns and labels:
# Details in all cases: with glucosamine-6-phosphate
# glucosamine-6-phosphate [1] = variants of: B1; test: self-cleavage kobs at 40 uM GlcN6P; higher = faster cleavage; RNA array
# Outline: (§1)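 Barcoded ribozyme variants, transcribed in situ by E. coli RNA polymerase on sequenced MiSeq chips, were followed via a hybridised Cy3 probe at 37 °C. Glucosamine-6-phosphate ranged from 40 μM to 10 mM in HEPES/KCl/Mg(OAc)2 buffer. kobs came from decay fits to per-tile medians, and kcat and KM from weighted Michaelis–Menten fits.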
# glucosamine-6-phosphate [2] = variants of: B1; test: self-cleavage kobs at 640 uM GlcN6P; higher = faster cleavage; RNA array
# Outline: as §1
# glucosamine-6-phosphate [3] = variants of: B1; test: self-cleavage kobs at 160 uM GlcN6P; higher = faster cleavage; RNA array
# Outline: as §1
# glucosamine-6-phosphate [4] = variants of: B1; test: self-cleavage kobs at 2500 uM GlcN6P; higher = faster cleavage; RNA array
# Outline: as §1
# glucosamine-6-phosphate [5] = variants of: B1; test: self-cleavage kobs at 10000 uM GlcN6P; higher = faster cleavage; RNA array
# Outline: as §1
Variant,self-cleavage kobs at 40 uM GlcN6P (glucosamine-6-phosphate [1]),self-cleavage kobs at 640 uM GlcN6P (glucosamine-6-phosphate [2]),self-cleavage kobs at 160 uM GlcN6P (glucosamine-6-phosphate [3]),self-cleavage kobs at 2500 uM GlcN6P (glucosamine-6-phosphate [4]),self-cleavage kobs at 10000 uM GlcN6P (glucosamine-6-phosphate [5])
U31C,0.000168 ± 2.9e-06 s⁻¹,0.00208 ± 7.4e-05 s⁻¹,0.000489 ± 1.7e-05 s⁻¹,0.00415 ± 0.00014 s⁻¹,0.00805 ± 0.00018 s⁻¹
U31C A33U U46A G66A,< 1e-05 s⁻¹,,< 1e-05 s⁻¹,< 1e-05 s⁻¹,< 1e-05 s⁻¹
U31C A39C A53U G63U,< 1e-05 s⁻¹,,,,
U31C A39G C50U U54G C58A G60C G62U,< 1e-05 s⁻¹,,,,
U31C C34A,< 1e-05 s⁻¹,,< 1e-05 s⁻¹,< 1e-05 s⁻¹,< 1e-05 s⁻¹
U31C C34G,< 1e-05 s⁻¹,,< 1e-05 s⁻¹,,< 1e-05 s⁻¹
U31C C34G G37A A42U U47A A52U,< 1e-05 s⁻¹,,,,
U31C C34U U65C,< 1e-05 s⁻¹,,,< 1e-05 s⁻¹,< 1e-05 s⁻¹
U31C C61G C68A,< 1e-05 s⁻¹,,,,< 1e-05 s⁻¹
U31C C67U,4.68e-05 ± 7.4e-06 s⁻¹,0.000375 ± 4.8e-05 s⁻¹,0.000125 ± 2e-05 s⁻¹,,
U31C C68A,< 1e-05 s⁻¹,,,,
U31C G32A U55A C71G,< 1e-05 s⁻¹,,,,
U31C G35A,< 1e-05 s⁻¹,< 1e-05 s⁻¹,< 1e-05 s⁻¹,< 1e-05 s⁻¹,< 1e-05 s⁻¹
U31C G35U,< 1e-05 s⁻¹,,< 1e-05 s⁻¹,< 1e-05 s⁻¹,
U31C G51U,< 1e-05 s⁻¹,,,,
U31C G66C C67G,< 1e-05 s⁻¹,,,,
U31C U45A,0.000212 ± 6e-05 s⁻¹,0.00258 ± 0.00062 s⁻¹,0.000613 ± 0.00012 s⁻¹,0.00783 ± 0.0016 s⁻¹,0.0108 ± 0.004 s⁻¹
U31C U54A G62U,< 1e-05 s⁻¹,,,,
U31C U55A,0.000152 ± 2.3e-05 s⁻¹,0.00126 ± 0.00017 s⁻¹,0.000289 ± 6.8e-05 s⁻¹,,
U31C U55G,0.000126 ± 1.5e-05 s⁻¹,,,,
U31G A33C,< 1e-05 s⁻¹,,,,
U31G A36U A52C G63C,< 1e-05 s⁻¹,,,,
U31G A48C,< 1e-05 s⁻¹,,,,
U31G A48U A64C,< 1e-05 s⁻¹,,,,< 1e-05 s⁻¹
U31G A64U,< 1e-05 s⁻¹,< 1e-05 s⁻¹,< 1e-05 s⁻¹,< 1e-05 s⁻¹,
U31G C34U,< 1e-05 s⁻¹,< 1e-05 s⁻¹,< 1e-05 s⁻¹,,< 1e-05 s⁻¹
